This is an account of results in paper PMC4336329 (PLoS ONE, 2015).

In all, about 310,000 compounds went through this assay and about 14,000 (4.5%) showed an effect of 50% or more. Effects have a minus sign here. The list shows a part of the results. Where a SMILES comes first, the peptide text is derived from it. [ ]: non-standard residue; d: D form. The star is where a group is joined. ξ: configuration not given here. Cbz = O=C(OCc1ccccc1)*; ξS = NC(CO)C(=O)O
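Further: peak tail current of the secondary pulse compared with the same well before compound.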

In the test the target is human ether-à-go-go-related gene (hERG) potassium channel (human, UniProt Q12809). Briefly: primary screen, population patch clamp on CHO cells stably expressing hERG.
Sequence of human ether-à-go-go-related gene (hERG) potassium channel (Q12809 whole entry, looked up): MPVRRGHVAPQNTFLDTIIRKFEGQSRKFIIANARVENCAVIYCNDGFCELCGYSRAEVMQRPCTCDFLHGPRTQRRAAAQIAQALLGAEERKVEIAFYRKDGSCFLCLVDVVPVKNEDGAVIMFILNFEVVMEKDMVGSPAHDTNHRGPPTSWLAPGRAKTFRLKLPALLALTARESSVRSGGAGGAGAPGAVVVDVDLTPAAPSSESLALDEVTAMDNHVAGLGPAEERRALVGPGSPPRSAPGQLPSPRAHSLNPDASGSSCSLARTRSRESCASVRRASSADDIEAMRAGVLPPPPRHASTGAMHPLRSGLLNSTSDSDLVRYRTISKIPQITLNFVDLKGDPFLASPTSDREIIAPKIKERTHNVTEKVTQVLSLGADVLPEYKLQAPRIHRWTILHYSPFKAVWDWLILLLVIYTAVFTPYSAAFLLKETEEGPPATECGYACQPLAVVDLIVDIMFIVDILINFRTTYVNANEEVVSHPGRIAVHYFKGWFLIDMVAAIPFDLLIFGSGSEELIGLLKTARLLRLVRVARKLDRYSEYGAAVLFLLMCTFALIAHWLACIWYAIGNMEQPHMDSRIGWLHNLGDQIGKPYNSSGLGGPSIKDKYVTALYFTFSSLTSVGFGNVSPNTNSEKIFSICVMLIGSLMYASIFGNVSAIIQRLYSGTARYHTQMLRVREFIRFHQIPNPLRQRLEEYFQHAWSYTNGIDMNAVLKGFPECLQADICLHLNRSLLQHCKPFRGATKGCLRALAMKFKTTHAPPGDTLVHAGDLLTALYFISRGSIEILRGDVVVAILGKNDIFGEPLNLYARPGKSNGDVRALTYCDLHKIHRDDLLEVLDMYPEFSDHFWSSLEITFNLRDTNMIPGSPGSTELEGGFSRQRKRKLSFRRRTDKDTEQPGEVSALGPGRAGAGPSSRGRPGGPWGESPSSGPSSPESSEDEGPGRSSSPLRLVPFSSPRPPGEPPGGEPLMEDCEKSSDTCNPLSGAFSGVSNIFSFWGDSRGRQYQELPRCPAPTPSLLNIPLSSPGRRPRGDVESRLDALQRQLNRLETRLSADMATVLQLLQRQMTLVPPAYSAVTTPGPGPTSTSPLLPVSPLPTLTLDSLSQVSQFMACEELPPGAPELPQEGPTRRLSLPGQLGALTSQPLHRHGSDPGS
Turning to `COc1ccccc1N1CCN(C(=O)CCN2C(=O)c3cccc4cccc(c34)C2=O)CC1`, the “hERG current change (%, negative = inhibition) at 10uM” value came to 15.5%.
On to `CC(C)(C)c1nnc(NC(=O)CS(=O)(=O)Cc2ccccc2)s1`, for which the “hERG current change (%, negative = inhibition) at 10uM” value is 8.87%.
Take `COc1ccc(C(=O)NNC(=O)CSc2nnc(C3CC3)n2C)cc1`: the “hERG current change (%, negative = inhibition) at 10uM” value worked out at 9.42%.
As for `CCCNC(=O)c1ccccc1NC(=O)C1COc2ccccc2O1` (stereo not drawn), the “hERG current change (%, negative = inhibition) at 10uM” value is -1.1%.
In the case of `COc1ccc(NC(=O)CSCC(=O)OCc2cccc(OC)c2OC)cc1` it was -1.87%; in that of `CCOC(=O)c1c(NC(=O)c2ccc(S(=O)(=O)N3CCOCC3)cc2)sc2c1CC(C)(C)NC2(C)C`, 3.39%; in that of `Cc1ccc(C(=O)Nc2cccc([N+](=O)[O-])c2)cc1S(=O)(=O)Nc1cccc(C(=O)O)c1`, 9.29%.
In the case of `CCOC(=O)Cc1csc(NC(=O)NC2(C(F)(F)F)Oc3cc(Cl)c(Cl)cc3O2)n1` it was 8.69%.
In the case of `COC(=O)c1nn(-c2cccc(C(F)(F)F)c2)c(=O)cc1Sc1ccccn1` it was -13.3%.
`COc1ccc(/C=C/C(=O)NCC(=O)n2nc(C)cc2C)cc1`: the “hERG current change (%, negative = inhibition) at 10uM” value turned out to be 7.91%.
In the case of `Cc1ccccc1SCCNC(=O)CCc1ccccc1` it was -4.62%; in that of `CCc1ccc(C(=O)NNc2ccc(F)cc2)cc1`, 14.2%; in that of `CCOC(=O)c1ccc(NC(=O)CSc2nnnn2CCCO)cc1`, -14.3%.
Turning to `O=C(COc1ccccc1[N+](=O)[O-])N/N=C/C=C/c1ccco1`, the “hERG current change (%, negative = inhibition) at 10uM” value came to 3.17%.
With `COc1ccc(C)cc1Nc1cc(C)nc2nc(C)nn12`, the “hERG current change (%, negative = inhibition) at 10uM” value is on record as -16.3%.
In the case of `C=CCn1c(COC)nnc1SCC(=O)c1ccc(F)cc1` it was 3.25%; in that of `N=c1c(C(=O)NCc2ccco2)cc2c(=O)n3ccccc3nc2n1Cc1ccc(Cl)cc1`, -77.1%; in that of `CN1CCN(c2ccc(NC(=O)c3ccc(C#N)cc3F)cc2Cl)CC1`, -53.7%.
In the case of `COc1ccc([N+](=O)[O-])cc1/C=N/NC(=O)Cc1ccccc1` it was 6.01%.
In the case of `COc1ccc(/C=C/c2nc3cc(-c4ccccc4)ccc3o2)cc1O` it was 9.02%; in that of `CC(C)/C=C/CN1CCC(Oc2ccc(C(=O)N3CCCC3)cc2)CC1`, -35.3%.
In the case of `NC(=O)c1cn(-c2ccccc2)nc1-c1cc2ccccc2oc1=O`, the “hERG current change (%, negative = inhibition) at 10uM” value is listed as -18.4%.
With `CCN1C(=O)[C@@H]2[C@@H](c3ccc(-c4ccc(C(C)=O)cc4)cc3)N3CCC[C@@]3(C(=O)OC)[C@@H]2C1=O.O=C(O)C(F)(F)F` the figure was -29.8%.
With `N/C(=N\OC(=O)c1cccc(F)c1)c1cccc([N+](=O)[O-])c1` the figure was 24.1%; with `COC(=O)c1cccc(NC(=O)C23CC4CC(C2)CC(n2cncn2)(C4)C3)c1`, -25.4%.
With `CCOC(=O)CNC(=O)C(CO)NC(=O)OCc1ccccc1` (stereo not drawn) (Cbz-[ξS]-Gly-OEt) the figure was 6.84%; with `CCCNC(=O)c1ccc(N2CCC3(CC2)CC(c2cccc(Br)c2)=NO3)c(NC(=O)c2ccc(Cl)c([N+](=O)[O-])c2)c1`, 4.46%; with `CCCCNC(=O)c1cn(-c2ccc(OCC)cc2)c(=O)c2cc(OC)c(OC)cc12`, -5.2%.
In the case of `O=C(O)c1ccc(N/N=C/c2ccc(-c3ccc(Br)cc3)o2)cc1`, the “hERG current change (%, negative = inhibition) at 10uM” value was -0.136%.
With `Cc1cc(OCC(=O)NCC2CCC(C(=O)O)CC2)c2c3c(c(=O)oc2c1)CCC3` (stereo not drawn) the figure was 3.2%; with `COc1ccc(/C=N/NC(=O)CN2CCS(=O)(=O)CC2)cc1`, -2.02%; with `O=C(CSc1ncnc2c1cnn2-c1ccc(F)cc1)NC1CCCC1`, 11.8%.
Regarding `CCCNC(=O)C(Cc1ccc(Br)cc1)NC(=O)c1ccc(C#N)cc1` (stereo not drawn), the “hERG current change (%, negative = inhibition) at 10uM” value is given as -3.74%.
In the case of `CN(CC(=O)NCc1cccs1)S(=O)(=O)c1cccc2nsnc12` it was 0.981%; in that of `O=C(NC1CCS(=O)(=O)C1)Oc1ccccc1` (stereo not drawn), 9.26%; in that of `CCOC(=O)c1ccc(NC(=O)CC2C(=O)N(c3ccc(F)cc3)C(=O)N2CCCOC)cc1` (stereo not drawn), -6.74%.
With `CCOc1ccc(C(C#N)N2CCOCC2)cc1OC` (stereo not drawn) the figure was 8.9%; with `O=C(O)c1cccc(NC(=S)NC(=O)C(c2ccccc2)c2ccccc2)c1`, -11.2%.
In the case of `Cl.O=C(NN1CCN(Cc2ccccc2Cl)CC1)c1ccc(Br)cc1` it was 18.3%.
As to `COc1ccccc1N1CCN(Cc2cc(OC)c3c(c2)OCO3)CC1`, the “hERG current change (%, negative = inhibition) at 10uM” value is listed as -8.69%.
In the case of `CCOC(=O)C(=CNc1ccc(NC2=NCC(C)S2)cc1)C(=O)OCC` (stereo not drawn), the “hERG current change (%, negative = inhibition) at 10uM” value was -10.7%.
Take `Cc1cc(NC(=O)CSc2nnc3c(C)cc4cc(C)c(C)cc4n23)no1`: the “hERG current change (%, negative = inhibition) at 10uM” value is 20%.
In the case of `COc1cccc(/C=N/n2cnc3ccccc32)c1OC` it was 13.6%.
With `CC(C)c1ccc(NC(=O)C2CCCCC2C(=O)O)cc1` (stereo not drawn) the figure was 7.18%; with `CCCCCCn1c(COc2ccccc2F)nnc1SCC(=O)N1c2ccccc2NC(=O)C1(C)C`, -6.49%; with `CCOC(=O)Cc1csc(NC(=O)c2ccc(F)cc2)n1`, -11.3%.
Turning to `COc1cc(CNCc2c[nH]c3ccccc23)cc(OC)c1`, the “hERG current change (%, negative = inhibition) at 10uM” value is -4.58%.
With `CCOC(=O)c1cc(-c2ccc(N3CCOCC3)cc2)nn1-c1ccccc1C(=O)O` the figure was 5.59%; with `COc1ccc(-c2cc(=O)c3c(O)c(OC)c(O)cc3o2)cc1`, -4.83%; with `CC1CCN(C(=O)COc2cccc3c2CCN(Cc2ccccc2)C3=O)CC1`, -36%.
As to `CCC1(C)Cc2c(sc(NC(=O)CCC(=O)O)c2C#N)CO1` (stereo not drawn), the “hERG current change (%, negative = inhibition) at 10uM” value came to 19.2%.
Turning to `CN(CCOc1ccc(Cl)cc1)C(=O)C1CCN(C(=O)c2ccc(Cl)cc2)CC1`, the “hERG current change (%, negative = inhibition) at 10uM” value was -75.4%.
With `CC1CN(c2ccc([N+](=O)[O-])c(NCCOc3ccccc3)c2)CCN1` (stereo not drawn) the figure was -2.1%.
In the case of `CN(c1ccccc1)C(c1ccc(F)cc1)c1nnnn1C1CCCC1` (stereo not drawn), the “hERG current change (%, negative = inhibition) at 10uM” value is listed as -17.1%.
With `CC(=O)N/C(=C/c1ccc2c(c1)OCO2)C(=O)O` the figure was -2.32%; with `Nc1ccc2c(C(F)(F)F)cc(=O)oc2c1`, 13.2%; with `COc1ccc(Cl)cc1NC(=O)CNCc1cccs1.O=C(O)C(=O)O`, -11.6%.
Take `COc1ccccc1N1CCN(C(=O)c2cc3c(s2)-c2ccccc2OC3)CC1`: the “hERG current change (%, negative = inhibition) at 10uM” value was 17.6%.
Consider `CCOc1ccccc1NC(=S)NCCCn1ccnc1`, for which the “hERG current change (%, negative = inhibition) at 10uM” value was found to be 43.3%.
With `C=CCC(CC=C)(C(N)=O)c1ccccc1` the figure was -2.73%.
On to `C=CCn1c(NC(=O)c2ccc(C)cc2)nc2ccccc21`, for which the “hERG current change (%, negative = inhibition) at 10uM” value turned out to be 6.35%.
As for `Cc1ccc(SCCC(=O)NC(C)(C)C)cc1`, the “hERG current change (%, negative = inhibition) at 10uM” value was -2.99%.
Turning to `O=C(O)/C=C/c1ccc2ccccc2n1`, the “hERG current change (%, negative = inhibition) at 10uM” value turned out to be 2.35%.
In the case of `O=C(CNC(=O)C(c1ccccc1)c1ccccc1)N/N=C\c1cccc(O)c1` it was 9.9%.
In the case of `Cn1ncc([N+](=O)[O-])c1C(=O)Nc1cccc(Cl)c1` it was 9.55%.
Take `Cc1nn(-c2nc3ccccc3[nH]2)c(N)c1-c1ccc(Cl)cc1`: the “hERG current change (%, negative = inhibition) at 10uM” value stood at 6.92%.
Consider `CCOC(=O)c1ccc(NC(=O)C2(c3ccccc3)CCOCC2)cc1`, for which the “hERG current change (%, negative = inhibition) at 10uM” value is recorded as 0.462%.
With `COc1ccc(-c2noc(CCCC(=O)NCc3ccco3)n2)cc1OC` the figure was 1.2%.
For `Cc1ccc(S(=O)(=O)NN2C(=O)c3ccccc3NC2c2ccccc2)cc1` (stereo not drawn), the “hERG current change (%, negative = inhibition) at 10uM” value is given as -16.6%.
In the case of `CC(C)NC(=O)c1ccc(CN2CCc3ccccc3C2)cc1`, the “hERG current change (%, negative = inhibition) at 10uM” value is reported as -44.5%.
In the case of `C[C@]12CC[C@H](O)C[C@@H]1CC[C@@H]1[C@@H]2CC[C@]2(C)C(=O)CC[C@@H]12` it was -58.3%.
As for `O=C(Nc1cc(C(F)(F)F)cc(C(F)(F)F)c1)Nc1cnn(-c2ccc([N+](=O)[O-])cc2)c1C(F)(F)F`, the “hERG current change (%, negative = inhibition) at 10uM” value is 2.7%.
In the case of `CC1=NN(C(=O)c2ccc(Cn3nc(C)cc3C)o2)C(O)(C(F)(F)F)C1` (stereo not drawn) it was 5.71%; in that of `Cn1c(=O)c2c(nc(Br)n2CCSc2ncccn2)n(C)c1=O`, -2.94%.
In the case of `O=C(Cn1cnc2c(nnn2Cc2ccccc2)c1=O)NCC1CCCO1` (stereo not drawn) it was 0.631%.
On to `Cc1c(CC(=O)O)c(=O)oc2c(C)c(OCc3nn[nH]n3)ccc12`, for which the “hERG current change (%, negative = inhibition) at 10uM” value is 19.2%.
In the case of `Cl.N=C(N)c1ccc(Cl)cc1` it was 28.3%.
With `Cc1ccc(C)c(OCC(=O)N2CCN(Cc3ccc4c(c3)OCO4)CC2)c1`, the “hERG current change (%, negative = inhibition) at 10uM” value is -23.3%.
In the case of `CC1(C)CC2(CCO1)OC(=O)CC2C(=O)Nc1ccccc1Cl` (stereo not drawn), the “hERG current change (%, negative = inhibition) at 10uM” value amounted to 1.54%.
With `Cc1ccnc(NC(=O)C2CC(=O)N(c3ccc4c(c3)OCCO4)C2)c1` (stereo not drawn) the figure was 11.2%; with `Cc1ccc(CN2CCN(Cc3ccccc3)C(CCO)C2)s1` (stereo not drawn), -62.8%.
With `O=S(=O)(c1ccccc1)N1CCOCC1`, the “hERG current change (%, negative = inhibition) at 10uM” value is listed as 1.77%.
With `Fc1ccccc1C1CC(c2ccco2)=Nc2ccccc2S1` (stereo not drawn), the “hERG current change (%, negative = inhibition) at 10uM” value came out at 9.99%.
As to `CCO[C@@H]1OC(C(=O)NCc2nc3ccccc3[nH]2)=C[C@H](c2coc3ccccc3c2=O)[C@H]1CCCO`, the “hERG current change (%, negative = inhibition) at 10uM” value is -9.12%.
Consider `CN(c1ccccc1)S(=O)(=O)c1cccc(NC(=O)CCNC(=O)c2ccc(Cl)cc2)c1`, for which the “hERG current change (%, negative = inhibition) at 10uM” value is recorded as -19.6%.
As to `O=C(Nc1ccccc1)[C@@H]1CC=C[C@@H]2CCN(Cc3ccccc3)C(=O)[C@@H]21`, the “hERG current change (%, negative = inhibition) at 10uM” value is given as -8.95%.
Take `COc1cc2c(cc1OC)CN(C(=O)Cc1ccc(OC)c(S(=O)(=O)N3CCOCC3)c1)CC2`: the “hERG current change (%, negative = inhibition) at 10uM” value is given as -3.56%.
